Experimental data: PubChem BioAssay (Tox21)
Where “and” joins values, the source holds several entries; their conditions need not be identical. Identical values can stand only once. Inconclusive results, whose numbers are uncertain, are shown with a selection of clear calls. For part of these data: Potencies beside an inconclusive call are fits to weak or partial responses and may not hold up. Where a structure was tested more than once in an assay, its records may differ in their call. Calls of active or inactive are those of the source. Unless noted, calls follow the shape of the dose curve; as a rule, active = well fitted curve in the direction sought with a large enough effect in the repeat runs; inconclusive = weak or mixed curves; inactive = no such curve, though single readings can be large; an effect the other way counts as inactive or inconclusive.

Assays:
[1] = molecular target: Estrogen receptor (Homo sapiens) (UniProt P03372); assay: qHTS assay to identify small molecule agonists of the estrogen receptor alpha (ER-alpha) signaling pathway (AID 743075; calls by dose curve;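 also: HEK293 GripTite cells with ER-alpha and UAS-driven beta-lactamase reporter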; also: potency is read from the fitted curve at half-maximal effect; as to activation: % is scaled to controls: 0 for no effect and ±100 for the full control effect); conditions: HEK293 ER-alpha-UAS-bla, beta-lactamase FRET ratio, 18 h; activation: at 70.1 µM (top of the series) unless noted
Chain of UniProt P03372 (P03372 whole entry, looked up): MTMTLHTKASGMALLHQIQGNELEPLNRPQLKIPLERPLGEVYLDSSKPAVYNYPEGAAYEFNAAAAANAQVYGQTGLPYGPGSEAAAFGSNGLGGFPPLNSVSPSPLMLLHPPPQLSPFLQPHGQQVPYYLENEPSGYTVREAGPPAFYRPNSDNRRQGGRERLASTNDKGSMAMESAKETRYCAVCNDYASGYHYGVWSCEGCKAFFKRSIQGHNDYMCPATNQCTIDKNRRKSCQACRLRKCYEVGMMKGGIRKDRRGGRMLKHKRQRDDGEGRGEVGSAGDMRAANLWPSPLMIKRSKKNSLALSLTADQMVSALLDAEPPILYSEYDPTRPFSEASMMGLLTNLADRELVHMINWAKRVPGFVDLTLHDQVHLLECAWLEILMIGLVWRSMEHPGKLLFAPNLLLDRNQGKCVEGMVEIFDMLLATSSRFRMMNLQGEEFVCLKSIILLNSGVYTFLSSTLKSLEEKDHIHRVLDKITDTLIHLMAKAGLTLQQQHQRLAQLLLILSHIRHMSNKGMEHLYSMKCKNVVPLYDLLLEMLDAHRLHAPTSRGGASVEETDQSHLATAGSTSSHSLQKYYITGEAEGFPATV

[2] = qHTS assay to identify small molecule antagonists of the estrogen receptor alpha (ER-alpha) signaling pathway using the BG1 cell line - cell viability counter screen (AID 743081); conditions: BG1Luc4E2 viability, CellTiter-Fluor, 22 h; activity change, negative = cytotoxicity: at 70.3 µM (top of the series);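 also: compound given together with 17beta-estradiol as the ER stimulus; nearly all actives have a fitted effect of over 45% in size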; also: potency is read from the fitted curve at half-maximal effect
[3] = molecular target: Peroxisome proliferator-activated receptor delta (Homo sapiens) (UniProt Q03181); assay: qHTS assay to identify small molecule agonists of the peroxisome proliferator-activated receptor delta (PPARd) signaling pathway (AID 743212; calls by dose curve;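 also: HEK293H cells with PPARd UAS beta-lactamase reporter GeneBLAzer system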; also: potency is read from the fitted curve at half-maximal effect; as to activation: % is scaled to controls: 0 for no effect and ±100 for the full control effect); conditions: HEK293H PPARd-UAS-bla, beta-lactamase FRET ratio, 17 h; activation: at 62.6 µM (top of the series) unless noted
Chain of UniProt Q03181 (Q03181 whole entry, looked up): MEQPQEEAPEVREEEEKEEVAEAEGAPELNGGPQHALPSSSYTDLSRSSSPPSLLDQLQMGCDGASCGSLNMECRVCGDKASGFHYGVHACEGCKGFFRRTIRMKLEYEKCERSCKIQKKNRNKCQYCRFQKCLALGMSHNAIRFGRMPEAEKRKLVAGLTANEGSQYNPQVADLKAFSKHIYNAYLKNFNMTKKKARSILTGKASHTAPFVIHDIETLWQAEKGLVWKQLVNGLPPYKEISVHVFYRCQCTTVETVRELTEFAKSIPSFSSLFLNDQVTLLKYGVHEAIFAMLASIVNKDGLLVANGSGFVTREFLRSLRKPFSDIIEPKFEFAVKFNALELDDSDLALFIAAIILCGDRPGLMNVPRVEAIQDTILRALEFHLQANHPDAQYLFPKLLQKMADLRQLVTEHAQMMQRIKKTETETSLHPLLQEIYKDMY
Outline: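 Steps: seed PPARd-bla HEK293H cells; incubate 5 h, 37 C, 5% CO2; add compounds in DMSO; incubate, 37 C; add LiveBLAzer B/G FRET substrate; hold 2 h at room temperature; measure fluorescence.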

[4] = qHTS RealTime-Glo MT Cell Viability Assay in HEK293 cells - 16 hour (AID 1224872); also: nearly all actives have a fitted effect of over 50% in size; also: potency is read from the fitted curve at half-maximal effect; as to activity change, negative = cytotoxicity: top concentration of the series differs between compounds; % is scaled to controls: 0 for no effect and ±100 for the full control effect
Outline: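 Tox21 10K qHTS, HEK293, 600 cells/well, RealTime-Glo reagent co-dispensed with cells; 5 h preincubation, compound by pintool, 37 C, luminescence at 0–40 h.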

[5] = A CellTox Green Cytotoxicity Assay to monitor cytotoxicity in HepG2 cells - 24 hour (AID 1224878); also: nearly all actives have a fitted effect of over 45% in size; also: potency is read from the fitted curve at half-maximal effect
Outline: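 Cytotoxicity was tracked as dead-cell DNA fluorescence in HepG2 cells treated with test compounds at 37 C; each time-point value comes from one kinetic series spanning 0, 8, 16, 24, 32 and 40 h.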

[6] = molecular target: Acetylcholinesterase (Homo sapiens) (UniProt P22303); assay: Acetylcholinesterase (AChE) small molecule antagonists: colormetric cell-based qHTS assay (AID 1347395; calls by dose curve; also: potency is read from the fitted curve at half-maximal effect; nearly all actives have a fitted effect of over 30% in size)
Chain of UniProt P22303 (P22303 whole entry, looked up): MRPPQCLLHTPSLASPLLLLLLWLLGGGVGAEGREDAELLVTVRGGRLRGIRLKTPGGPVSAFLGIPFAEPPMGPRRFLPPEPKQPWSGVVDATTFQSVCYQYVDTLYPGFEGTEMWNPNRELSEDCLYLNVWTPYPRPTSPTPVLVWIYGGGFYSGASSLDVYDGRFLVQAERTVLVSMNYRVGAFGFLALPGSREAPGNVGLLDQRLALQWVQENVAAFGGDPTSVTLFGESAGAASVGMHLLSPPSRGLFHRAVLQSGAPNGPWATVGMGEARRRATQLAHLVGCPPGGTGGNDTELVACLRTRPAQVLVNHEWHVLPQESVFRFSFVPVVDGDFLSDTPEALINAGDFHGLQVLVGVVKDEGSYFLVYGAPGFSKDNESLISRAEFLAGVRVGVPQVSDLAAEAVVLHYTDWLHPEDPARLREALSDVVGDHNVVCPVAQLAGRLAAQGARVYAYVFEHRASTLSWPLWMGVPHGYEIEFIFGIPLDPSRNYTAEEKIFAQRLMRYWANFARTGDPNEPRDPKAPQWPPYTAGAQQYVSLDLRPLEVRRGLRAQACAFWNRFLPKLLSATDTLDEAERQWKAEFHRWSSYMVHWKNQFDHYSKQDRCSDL
Outline: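 Homogeneous whole-cell format. SH-SY5Y cells seeded overnight, dosed with compound (30 min, 37 C, 5% CO2), then given DTNB/acetylthiocholine cocktail for 90 min at 37 C; colorimetric signal.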

[7] = molecular target: Cytochrome P450 3A4 (Homo sapiens) (UniProt P08684); assay: Cytochrome P450 Family 3 Subfamily A Member 4 (CYP3A4) small molecule antagonists: luciferase reporter qHTS assay (AID 1671201); also: potency is read from the fitted curve at half-maximal effect; nearly all actives have a fitted effect of over 50% in size
Chain of UniProt P08684 (P08684 whole entry, looked up): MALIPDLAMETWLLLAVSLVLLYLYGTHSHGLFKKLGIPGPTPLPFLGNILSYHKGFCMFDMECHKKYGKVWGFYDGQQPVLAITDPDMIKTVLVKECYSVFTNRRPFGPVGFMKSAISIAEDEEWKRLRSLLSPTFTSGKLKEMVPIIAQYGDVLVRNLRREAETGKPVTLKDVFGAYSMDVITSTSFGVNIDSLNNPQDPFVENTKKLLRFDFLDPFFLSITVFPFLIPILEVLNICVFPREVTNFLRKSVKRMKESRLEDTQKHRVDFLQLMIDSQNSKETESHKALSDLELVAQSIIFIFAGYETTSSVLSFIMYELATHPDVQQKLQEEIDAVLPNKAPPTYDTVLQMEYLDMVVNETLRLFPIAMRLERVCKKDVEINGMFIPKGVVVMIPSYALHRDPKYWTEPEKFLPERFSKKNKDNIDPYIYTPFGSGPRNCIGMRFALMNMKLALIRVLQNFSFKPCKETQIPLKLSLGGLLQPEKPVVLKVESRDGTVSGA
Outline: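 Relative luminescence units after 20 min with luciferin detection reagent served as read-out. Beforehand, CYP3A4 turned over a proluciferin substrate for 1 h at room temperature with NADPH regeneration, following 10 min compound preincubation.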

[8] = qHTS assay for small molecule agonists of the p53 signaling pathway (AID 651631; calls by dose curve; also: nearly all actives have a fitted effect of over 15% in size; also: potency is read from the fitted curve at half-maximal effect); conditions: HCT-116 p53RE-bla reporter, beta-lactamase FRET ratio, 16 h; activation: at 73.3 µM (top of the series) unless noted
Outline: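 Testing took place in human colorectal HCT-116 cells with stable p53RE-driven beta-lactamase. After 16 h of compound exposure at 37 °C, a FRET substrate was added and fluorescence recorded 2 h later.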

[9] = molecular target: Thyrotropin receptor (Homo sapiens) (UniProt P16473); assay: qHTS assay to identify small molecule antagonists of the thyroid stimulating hormone receptor (TSHR) signaling pathway (AID 1259385; calls by dose curve; also: % is scaled to controls: 0 for no effect and ±100 for the full control effect; nearly all actives have a fitted effect of over 20% in size); conditions: TSHR-HEK293 cAMP HTRF, TSH-stimulated antagonist mode; activity change, negative = inhibition: at 92.4 µM (top of the series)
Chain of UniProt P16473 (P16473 whole entry, looked up): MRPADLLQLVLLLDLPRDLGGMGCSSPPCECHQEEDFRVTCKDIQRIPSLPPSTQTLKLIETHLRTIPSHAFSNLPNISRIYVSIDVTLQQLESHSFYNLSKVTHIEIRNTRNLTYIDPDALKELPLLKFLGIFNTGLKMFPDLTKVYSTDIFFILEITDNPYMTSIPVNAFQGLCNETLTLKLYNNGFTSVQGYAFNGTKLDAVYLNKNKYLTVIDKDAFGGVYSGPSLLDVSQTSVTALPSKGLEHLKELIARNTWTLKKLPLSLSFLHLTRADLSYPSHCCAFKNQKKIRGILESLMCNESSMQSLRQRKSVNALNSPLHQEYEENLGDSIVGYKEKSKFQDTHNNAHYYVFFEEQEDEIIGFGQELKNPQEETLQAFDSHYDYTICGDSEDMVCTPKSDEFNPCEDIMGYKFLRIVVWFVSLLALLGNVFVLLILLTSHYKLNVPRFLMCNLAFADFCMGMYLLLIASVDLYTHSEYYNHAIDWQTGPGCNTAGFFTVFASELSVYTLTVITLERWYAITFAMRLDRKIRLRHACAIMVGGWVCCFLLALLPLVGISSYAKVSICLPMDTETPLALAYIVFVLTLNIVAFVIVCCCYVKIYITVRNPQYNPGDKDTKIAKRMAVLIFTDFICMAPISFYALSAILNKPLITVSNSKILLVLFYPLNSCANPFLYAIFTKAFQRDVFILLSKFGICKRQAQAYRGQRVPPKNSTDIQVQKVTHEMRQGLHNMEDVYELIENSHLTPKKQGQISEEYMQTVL
Outline: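 Antagonist mode: compound-treated TSHR-expressing HEK293 cells were stimulated with 1.5 ng/mL TSH (final) in presence of Ro20-1724 for 30 min at RT. HTRF cAMP detection after 1 h; each compound tested at 15 concentrations, triplicate.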

[10] = qHTS RealTime-Glo MT Cell Viability Assay in HEK293 cells - 40 hour (AID 1224874); conditions: RealTime-Glo luminescence; max response: stronger effect = lower value; also: nearly all actives have a fitted effect of over 50% in size; also: potency is read from the fitted curve at half-maximal effect
Outline: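 Kinetic, non-lysing viability readout. Seed HEK293 (600/well) with reagent, incubate 5 h at 37 C/5% CO2, pin 23 nL compound in DMSO, incubate at 37 C, read luminescence at 0, 8, 16, 24, 32, 40 h.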

[11] = molecular target: Voltage-gated inwardly rectifying potassium channel KCNH2 (Homo sapiens) (UniProt Q12809); assay: Human Ether-a-go-go-Related Gene (hERG) channel small molecule antagonists: fluorescence cell-based qHTS assay (AID 1671200); also: nearly all actives have a fitted effect of over 50% in size; also: potency is read from the fitted curve at half-maximal effect;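 as to activity change, negative = inhibition: hERG-expressing U2OS cells given a thallium stimulus after FluxOR II dye loading; % is scaled to controls: 0 for no effect and ±100 for the full control effect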
Chain of UniProt Q12809 (Q12809 whole entry, looked up): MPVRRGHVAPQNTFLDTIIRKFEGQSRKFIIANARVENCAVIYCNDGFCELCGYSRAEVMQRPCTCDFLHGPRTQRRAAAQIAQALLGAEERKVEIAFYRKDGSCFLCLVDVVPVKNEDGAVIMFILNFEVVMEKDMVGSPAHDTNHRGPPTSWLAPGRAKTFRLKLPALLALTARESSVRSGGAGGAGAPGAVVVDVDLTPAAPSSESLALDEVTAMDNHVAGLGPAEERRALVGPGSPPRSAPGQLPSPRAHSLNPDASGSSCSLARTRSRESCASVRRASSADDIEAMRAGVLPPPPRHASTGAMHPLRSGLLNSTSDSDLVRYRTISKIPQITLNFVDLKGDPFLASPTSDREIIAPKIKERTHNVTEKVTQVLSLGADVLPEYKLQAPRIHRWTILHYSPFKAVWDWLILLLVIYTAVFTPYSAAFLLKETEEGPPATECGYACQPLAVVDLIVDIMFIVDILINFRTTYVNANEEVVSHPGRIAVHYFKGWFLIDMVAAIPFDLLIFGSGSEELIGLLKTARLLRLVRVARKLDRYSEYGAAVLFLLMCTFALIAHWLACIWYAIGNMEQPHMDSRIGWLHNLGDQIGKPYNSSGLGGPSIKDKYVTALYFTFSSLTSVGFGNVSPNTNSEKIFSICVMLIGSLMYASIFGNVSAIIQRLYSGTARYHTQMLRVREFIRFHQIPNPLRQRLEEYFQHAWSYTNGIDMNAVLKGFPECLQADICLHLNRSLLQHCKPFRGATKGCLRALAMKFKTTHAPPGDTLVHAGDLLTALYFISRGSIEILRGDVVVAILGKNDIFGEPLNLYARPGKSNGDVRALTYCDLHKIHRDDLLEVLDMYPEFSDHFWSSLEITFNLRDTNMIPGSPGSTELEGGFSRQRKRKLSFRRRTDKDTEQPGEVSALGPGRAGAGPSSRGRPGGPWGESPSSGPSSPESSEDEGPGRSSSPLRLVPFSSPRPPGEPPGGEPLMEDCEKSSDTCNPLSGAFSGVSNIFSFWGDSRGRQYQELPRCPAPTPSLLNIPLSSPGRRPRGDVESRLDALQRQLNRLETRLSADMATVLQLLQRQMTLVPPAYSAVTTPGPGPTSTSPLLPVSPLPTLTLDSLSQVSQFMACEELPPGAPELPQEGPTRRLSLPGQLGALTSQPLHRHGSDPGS
Outline: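 Thallium served as the potassium surrogate; its influx into dye-loaded U2OS cells carrying the channel was measured by fluorescence over 2 min.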

[12] = qHTS assay to identify small molecule antagonists of the androgen receptor (AR) signaling pathway - cell viability counter screen (AID 743033; also: % is scaled to controls: 0 for no effect and ±100 for the full control effect; nearly all actives have a fitted effect of over 45% in size)
[13] = molecular target: Bile acid receptor (Homo sapiens) (UniProt Q96RI1); assay: qHTS assay to identify small molecule agonists of the farnesoid-X-receptor (FXR) signaling pathway (AID 743220; active = well fitted activation curve with a large enough effect in the signal ratio in the repeat runs, not every such curve was filed as active; inconclusive = weak or mixed curves, or effect the other way; the % refers to the signal ratio; also: potency is read from the fitted curve at half-maximal effect); conditions: HEK293T FXR-UAS-bla, beta-lactamase FRET ratio, 16 h; activation: at 62.6 µM (top of the series)
Chain of UniProt Q96RI1 (Q96RI1 whole entry, looked up): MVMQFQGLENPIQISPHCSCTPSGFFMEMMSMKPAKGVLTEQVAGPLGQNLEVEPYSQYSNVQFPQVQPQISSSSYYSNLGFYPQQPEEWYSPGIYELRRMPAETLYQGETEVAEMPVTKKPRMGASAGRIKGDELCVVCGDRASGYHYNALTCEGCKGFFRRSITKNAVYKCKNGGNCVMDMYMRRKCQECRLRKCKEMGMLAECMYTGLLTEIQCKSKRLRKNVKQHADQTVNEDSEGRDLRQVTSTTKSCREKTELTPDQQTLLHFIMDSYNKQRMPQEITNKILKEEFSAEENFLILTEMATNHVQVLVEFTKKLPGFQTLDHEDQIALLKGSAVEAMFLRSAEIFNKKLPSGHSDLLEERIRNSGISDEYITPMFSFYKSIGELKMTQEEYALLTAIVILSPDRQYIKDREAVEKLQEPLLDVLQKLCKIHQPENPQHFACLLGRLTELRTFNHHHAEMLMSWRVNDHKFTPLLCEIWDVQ
Outline: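 FXR-UAS-bla HEK 293T cells carrying a UAS-driven beta-lactamase reporter were plated for 5 h at 37C/5% CO2, then exposed to DMSO-dissolved Tox21 10K compounds for 16 h at 37C. A LiveBLAzer B/G FRET substrate was loaded for 2 h at room temperature before fluorescence reading.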

[14] = qHTS assay for small molecule activators of the heat shock response signaling pathway - cell viability counter screen (AID 743209); conditions: HSE-bla HeLa viability, CellTiter-Glo luminescence, 5 h; activity change, negative = cytotoxicity: at 62.6 µM (top of the series)
Outline: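 Compounds dissolved in DMSO were added to overnight-plated HSE-bla HeLa cells and left 5 h at 37 C. Cell viability was quantified by luminescence using CellTiter-Glo.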

[15] = qHTS assay to identify small molecule antagonists of the estrogen receptor alpha (ER-alpha) signaling pathway using the BG1 cell line (AID 743080; calls by dose curve;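 also: BG1 cells stimulated with 17beta-estradiol alongside compound; % is scaled to controls: 0 for no effect and ±100 for the full control effect; nearly all actives have a fitted effect of over 25% in size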); conditions: BG1Luc4E2 ERE-luciferase antagonist mode, luminescence; activity change, negative = inhibition: at 70.3 µM (top of the series) unless noted
Outline: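 Readout is ONE-Glo luminescence, taken 30 min at room temperature after reagent addition, preceded by a CellTiter-Fluor viability read; BG1-Luc-4E2 cells had received compound and 17beta-estradiol for 21.5 h at 37 C.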

[16] = qHTS assay to identify small molecule antagonists of the vitamin D receptor (VDR) signaling pathway - cell viability counter screen (AID 743225); conditions: VDR-bla HEK293T viability, CellTiter-Glo luminescence, 16 h; viability change, negative = cytotoxic: at 61 µM (top of the series) unless noted; also: nearly all actives have a fitted effect of over 50% in size; also: potency is read from the fitted curve at half-maximal effect
Outline: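 Same-well multiplex: following 16 h treatment of HEK 293T cells carrying a UAS-driven beta-lactamase reporter with compound and agonist (3 nM final), and a 2 h FRET substrate step, CellTiter-Glo was added and luminescence read after 30 min.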

[17] = qHTS assay to identify small molecule agonists of the sonic hedgehog signaling (Shh) pathway - cell viability counter screen (AID 1259366); also: nearly all actives have a fitted effect of over 50% in size; also: potency is read from the fitted curve at half-maximal effect
Outline: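 Compounds in DMSO were pin-transferred onto 3T3 Gli1-Luc cells that had settled 4hr; plates then stood 24hr at 37C and 5% CO2. One hour before the end, CellTiter-Fluor was added and fluorescence recorded.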

[18] = A CellTox Green Cytotoxicity Assay to monitor cytotoxicity in HEK293 cells - 8 hour (AID 1224884); also: nearly all actives have a fitted effect of over 35% in size; also: potency is read from the fitted curve at half-maximal effect
Outline: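 Real-time, in one plate: 600 HEK293 cells/well with dead-cell DNA dye, pinned compound after 5 h, 37 C incubation over 40 h; viable cells give no appreciable fluorescence.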

[19] = molecular target: Nuclear receptor subfamily 1 group I member 2 (Homo sapiens) (UniProt O75469); assay: Human pregnane X receptor (PXR) small molecule agonists, qHTS assay (AID 1346982); also: potency is read from the fitted curve at half-maximal effect; nearly all actives have a fitted effect of over 35% in size
Chain of UniProt O75469 (O75469 whole entry, looked up): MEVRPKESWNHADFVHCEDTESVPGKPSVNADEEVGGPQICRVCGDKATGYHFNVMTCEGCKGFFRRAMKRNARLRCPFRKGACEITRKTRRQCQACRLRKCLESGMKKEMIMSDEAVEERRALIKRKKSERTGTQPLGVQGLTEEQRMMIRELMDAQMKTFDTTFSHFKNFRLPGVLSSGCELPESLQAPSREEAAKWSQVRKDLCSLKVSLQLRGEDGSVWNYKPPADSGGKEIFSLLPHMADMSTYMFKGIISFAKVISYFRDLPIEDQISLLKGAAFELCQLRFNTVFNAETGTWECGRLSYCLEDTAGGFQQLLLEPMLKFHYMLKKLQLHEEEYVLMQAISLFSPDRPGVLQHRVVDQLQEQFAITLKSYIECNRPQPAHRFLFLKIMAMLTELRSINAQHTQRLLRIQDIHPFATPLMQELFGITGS
Outline: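 Tox21 qHTS; PXR-Luc HepG2; compounds pinned from DMSO; 24 hr, 37 C; ONE-Glo luciferase detection, 30 min room temperature.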
Tags tell the direction and shape of the fitted curve or compound fluorescence and quenching.

In the case of COc1nc(NC(C)C)nc(NC(C)C)n1, the Potency [1] is reported as “inactive” and the Potency [2] is reported as inconclusive: 6.86 µM [rising, partial curve, poor fit].
With CCOP(=O)(OCC)OCC the Potency [3] was “inactive”, the Potency [4] was “inactive” and the Potency [5] was inconclusive: 6.16 µM [activator, partial curve, poor fit]. The Potency [6] was inconclusive: 69.8 µM [inhibitor, partial curve, poor fit] and the Potency [7] was inconclusive: 39.2 µM [inhibitor, partial curve].
For O=NN1CCOCC1, the Potency [8] was inconclusive: 68.6 µM [rising, partial curve, poor fit] and the Potency [5] was inconclusive: 61.6 µM [activator, single point].
With COc1ccc(CO)cc1 the Potency [9] was “inactive”.
With CCC(=O)c1ccc(Cl)cc1 the Potency [4] was inconclusive: 0.195 µM [cytotoxic, single point], the Potency [10] was inconclusive: 0.195 µM [cytotoxic, single point] and the Potency [11] was “inactive”.
For CCCCOP(=O)(O)OCCCC, the Potency [1] was inconclusive: 61.7 µM [activator, partial curve, poor fit].
For O=P(O)(Oc1ccccc1)Oc1ccccc1, the Potency [12] was “inactive”, the Potency [2] was “inactive” and the Potency [13] was “inactive”. The Potency [4] was inconclusive: 43.6 µM [rising, partial curve, poor fit].
In the case of Cc1cccc(C#N)c1, the Potency [8] is reported as “inactive”, the Potency [14] is reported as “inactive” and the Potency [3] is reported as inconclusive: 0.0194 µM [rising, full curve, poor fit]. The max response [10] was inactive: 6.99%.
With CSC(C)(C)/C=N/O the Potency [15] was “inactive”.
In the case of CCCC[n+]1ccccc1C, the Potency [16] is reported as inconclusive: 0.347 µM [cytotoxic, full curve, poor fit], the Potency [4] is reported as “inactive” and the Potency [5] is reported as “inactive and inconclusive: 22 µM [activator, single point]”.
With CC(C)Nc1nc(Cl)nc(NC(C)C)n1 the Potency [1] was inconclusive: 1.38 µM [full curve], the Potency [17] was inconclusive: 43.2 µM [rising, partial curve, poor fit] and the Potency [9] was “inactive”. For the same compound, the Potency [6] was active: 31.7 µM.
With Cl the Potency [14] was “inactive” and the Potency [18] was inconclusive: 12.3 µM [activator, full curve, poor fit].
For C=CC=O, the Potency [10] was inconclusive: 50.1 µM [rising, partial curve, poor fit] and the Potency [18] was “inactive”.
For O=C(NC(=O)c1c(F)cccc1F)Nc1cc(Cl)c(F)c(Cl)c1F, the Potency [8] was inconclusive: 29.9 µM [rising, partial curve, poor fit] and the Potency [16] was inconclusive: 0.602 µM [cytotoxic, single point].
For Oc1ccc(Cl)cc1Cl, the Potency [2] was “inactive”, the Potency [4] was inconclusive: 21.9 µM [cytotoxic, single point] and the Potency [10] was inconclusive: 21.9 µM [cytotoxic, single point]. For the same compound, the Potency [5] was “inactive”, the Potency [17] was “inactive” and the Potency [19] was inconclusive: 68 µM [activator].
With CC(C)C1(C)N=C(c2ncccc2C(=O)O)NC1=O (stereo not drawn) the Potency [15] was “inactive”, the Potency [14] was “inactive” and the Potency [13] was “inactive”.
For ClC1=C(Cl)[C@]2(Cl)[C@@H]3[C@@H](Cl)[C@H](Cl)C[C@@H]3[C@@]1(Cl)C2(Cl)Cl, the Potency [6] was inconclusive: 0.0252 µM [inhibitor, full curve].
With COC(=O)c1ccccc1S(=O)(=O)NC(=O)Nc1nc(C)cc(C)n1 the Potency [6] was inconclusive: 3.17 µM [inhibitor, single point].
For CCCCCCCCCCCC#N, the Potency [13] was inconclusive: 2.27 µM [rising, single point], the Potency [5] was active: 45.2 µM and the Potency [18] was active: 45.2 µM. The Potency [11] was inconclusive: 24.8 µM [inhibitor, partial curve].
With C=C(C)CN(CC)c1c([N+](=O)[O-])cc(C(F)(F)F)cc1[N+](=O)[O-] the activity change, negative = inhibition [15] was inconclusive: -0.916%, the Potency [16] was “inactive” and the Potency [11] was inconclusive: 43.6 µM [inhibitor, partial curve, poor fit].
For CCCCCCCCP(=O)(O)O, the Potency [16] was “inactive”.
For CCOP(=S)(OCC)SCSc1cc(Cl)ccc1Cl, the Potency [17] was “inactive”.
With CCOP(=O)(OCC)OP(=O)(OCC)OCC the Potency [8] was inconclusive: 0.969 µM [falling, single point].
With Clc1cnc(Oc2ccc(Oc3ncc(Cl)cc3Cl)cc2)c(Cl)c1 the Potency [12] was “inactive”, the Potency [2] was “inactive” and the Potency [4] was inconclusive: 34.7 µM [cytotoxic, partial curve, poor fit]. For the same compound, the activity change, negative = inhibition [9] was inconclusive: -12.1% and the Potency [11] was inconclusive: 10.8 µM [inhibitor, full curve] and active: 19.5 µM.
With C=CC(=O)NC(C)(C)CC(C)=O the Potency [8] was “inactive”.
